The subject of the assay is NCI-H322M lung. The experiment in a line: growth of human tumour cells (NCI), 48 h.

Several values for one entry are separate records, joined by “and”; a condition that tells them apart may be missing. Equal entries are not always repeated.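 Values below derive from 48-hour exposures of cells grown in 96-well plates, with endpoints linearly interpolated between the two concentrations bracketing the appropriate inhibition level. GI50: concentration for 50% inhibition of growth. Definition used: TGI = concentration required for complete inhibition of growth.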 Numbered stars: 1 amine (or outer) side, 2 acyl side, 3 side chain; on linkers, the order of the positions; unused ones are H or OH. Bridge positions count the residues as written; N and C are the ends. Peptide text beside a SMILES is read from it. I, II: the chains in the order shown. X16 = CCCCCCCCCCCCCCC(=O)NC(CCCCN[*:2])C(=O)CN1CCCC1C(=O)[*:1]

Take `CC(=O)C1=C(C)N(c2ccc(C)cc2)C2(O)C=CC(=O)C3=C(O)c4ccccc4C(=O)C312` (configuration not stated): the TGI is 45.5 µM. On the same count and under the same terms, with `O=S(=O)(CC(O)C(Cl)(Cl)Cl)NNc1ccccc1` (configuration not stated) the figure was above 100 µM. The same measure, in the same setting: with `COc1ccc2oc(-c3cc4cc(OC)ccc4o3)cc2c1` the figure was above 100 µM.

Take `Nc1nccc2c1ncn2C1C=C(CO)C(O)C1O` (configuration not stated): the GI50 was 548 µM and the TGI is above 1000 µM. The compound `COc1ccc(/C=N/NS(=O)(=O)c2ccc(/C=C3\NC(=O)N(C)C3=O)cc2)cc1` had a TGI above 100 µM.

`O=C1c2cccc3cccc(c23)C(=O)N1CC#Cc1ccc2c3c(cccc13)C(=O)N(CCN1CCNCC1)C2=O`: the GI50 is 10.1 µM and the TGI came to 23.5 µM. The matching figures for `CC(=O)Nc1cc(C(c2ccccc2)c2ccccc2)cc(C(c2ccccc2)c2ccccc2)c1C`: above 100 µM and above 100 µM. With `O=C1/C(=C/c2ccc3c(c2)OCO3)Sc2scc(-c3ccc(O)c(O)c3)[n+]21`, the TGI worked out at 29.1 µM. Still for that read-out and setting: with `CC1(C)CC(=O)C(CC2C(=O)c3ccccc3C2=O)C(=O)C1C(=O)C(=O)Nc1cccc2ccc(O)cc12` (configuration not stated) the figure was above 100 µM; with `CC12OC3(C(O)C1O)C(C(=O)O[C@H]3CO[Si](C)(C)C(C)(C)C)C2S(=O)(=O)c1ccccc1` (some centres not stated), above 100 µM; with `O=C(O)c1ccccc1-c1ccccc1C(=O)Nc1ccc2c(c1)Cc1ccccc1-2`, above 100 µM. `COc1cccc(C(C#N)NC23CC4CC(CC(C4)C2)C3)c1` (configuration not stated) returned a TGI above 100 µM. Same read-out and setting: with `Cc1ccccc1C(=O)NC(O)(C(F)(F)F)C(F)(F)F` the figure was above 100 µM. `Cc1cc(NS(=O)(=O)c2ccc(NC(=O)COc3ccc(-c4cc5ccccc5[nH]4)cc3)cc2)no1`: the GI50 was 2.67 µM and the TGI came to 7.67 µM. For `CCCCCCCCCCCCCCC(=O)NC(CCCCNC(=O)C1CCCN1C(=O)C(CCCCN)NC(=O)C(CCCCN)NC(=O)C(CCCCN)NC(=O)C(CCCNC(=N)N)NC(=O)C(CCCCN)NC(=O)C(N)C(C)C)C(=O)CN1CCCC1C(=O)NCC(=O)NC(Cc1ccccc1)C(=O)N1CCCC1C(=O)NC(CO)C(=O)NC(Cc1ccc(O)cc1)C(=O)NC(CCCCN)C(=O)NC(CC(C)C)C(=O)NC(CCCNC(=N)N)C(=O)N1CCCC1C(=O)NCC(N)=O` (configuration not stated) (I: GFPSYKLRPG-NH2 / II: H-VKRKKKP; linker I:N-II:C via X16; configuration not given here), the GI50 was 17.8 µM and the TGI worked out at 48.3 µM. The compound `COC1=CCC2=C(CCN(C(=O)C3CC3)C2Cc2ccc(OC)c(O)c2)C1` (configuration not stated) showed a TGI above 100 µM.

On to `O=C1c2ccccc2C(=O)c2c(NCCNCCO)ccc(NCCNCCO)c21`, for which the GI50 was 1.89 µM and 1.52 µM and 2.15 µM; the TGI is 6.84 µM and 6.26 µM and 6.93 µM. Take `Cc1no[n+]([O-])c1/C=N/NS(=O)(=O)c1ccccc1`: the TGI was above 100 µM. On to `Nc1cccc2c1CN(C1CCC(=O)NC1=O)C2=O` (configuration not stated), for which the GI50 was above 100 µM and the TGI is above 100 µM. Turning to `O=c1c(-c2ccc3c(c2)OCO3)coc2c(CO)c(O)ccc12`, the GI50 was 3.04 µM and the TGI came out at 9.3 µM.

The compound `Oc1ccc(NCc2cc(O)ccc2O)cc1` yielded a TGI of 30.7 µM.

For the compound `Nc1ncnc2c1ccn2CC=C(CO)CO`, the TGI is above 100 µM. On to `CN(C)CCCNC(=O)c1cccc2nc3ccccc3nc12`, for which the TGI is 49.7 µM. Still for that read-out and setting: with `CNC(=O)C1CCC(=O)N1CN(C(C)=O)c1ccccc1` (configuration not stated) the figure was above 100 µM.

For `O=CN(O)CC(=O)O.[Ni]`, the TGI is above 100 µM.

Regarding `N#Cc1nc(-c2ccccc2O)oc1N`, the TGI was above 100 µM. On the same count and under the same terms, with `CC(C)CC(NC=O)C(=O)NC(Cc1ccccc1)NC(=O)CNC(=O)C(C)NC(=O)OC(C)(C)C` (configuration not stated) the figure was above 100 µM; with `Clc1ccc(/C=C/c2nc(-c3ccc(Cl)cc3)cn3c2nc2ccccc23)cc1`, above 100 µM; with `O=C1CC(NC2CC(=O)c3c(Br)sc(Br)c32)c2c(Br)sc(Br)c21` (configuration not stated), 26.1 µM.

The record behind these values is PubChem BioAssay (NCI).
